Paper PMC4336329 (PLoS ONE, 2015)
Among all 310,000 compounds or so, about 2,200 (0.71%) showed an effect of 50% or more. The effect is printed as a negative number. This is one part of the list.

Target: human ether-à-go-go-related gene (hERG) potassium channel (human, UniProt Q12809)
Experiment: primary screen, population patch clamp on CHO cells stably expressing hERG

human ether-à-go-go-related gene (hERG) potassium channel, sequence (Q12809 whole entry, looked up): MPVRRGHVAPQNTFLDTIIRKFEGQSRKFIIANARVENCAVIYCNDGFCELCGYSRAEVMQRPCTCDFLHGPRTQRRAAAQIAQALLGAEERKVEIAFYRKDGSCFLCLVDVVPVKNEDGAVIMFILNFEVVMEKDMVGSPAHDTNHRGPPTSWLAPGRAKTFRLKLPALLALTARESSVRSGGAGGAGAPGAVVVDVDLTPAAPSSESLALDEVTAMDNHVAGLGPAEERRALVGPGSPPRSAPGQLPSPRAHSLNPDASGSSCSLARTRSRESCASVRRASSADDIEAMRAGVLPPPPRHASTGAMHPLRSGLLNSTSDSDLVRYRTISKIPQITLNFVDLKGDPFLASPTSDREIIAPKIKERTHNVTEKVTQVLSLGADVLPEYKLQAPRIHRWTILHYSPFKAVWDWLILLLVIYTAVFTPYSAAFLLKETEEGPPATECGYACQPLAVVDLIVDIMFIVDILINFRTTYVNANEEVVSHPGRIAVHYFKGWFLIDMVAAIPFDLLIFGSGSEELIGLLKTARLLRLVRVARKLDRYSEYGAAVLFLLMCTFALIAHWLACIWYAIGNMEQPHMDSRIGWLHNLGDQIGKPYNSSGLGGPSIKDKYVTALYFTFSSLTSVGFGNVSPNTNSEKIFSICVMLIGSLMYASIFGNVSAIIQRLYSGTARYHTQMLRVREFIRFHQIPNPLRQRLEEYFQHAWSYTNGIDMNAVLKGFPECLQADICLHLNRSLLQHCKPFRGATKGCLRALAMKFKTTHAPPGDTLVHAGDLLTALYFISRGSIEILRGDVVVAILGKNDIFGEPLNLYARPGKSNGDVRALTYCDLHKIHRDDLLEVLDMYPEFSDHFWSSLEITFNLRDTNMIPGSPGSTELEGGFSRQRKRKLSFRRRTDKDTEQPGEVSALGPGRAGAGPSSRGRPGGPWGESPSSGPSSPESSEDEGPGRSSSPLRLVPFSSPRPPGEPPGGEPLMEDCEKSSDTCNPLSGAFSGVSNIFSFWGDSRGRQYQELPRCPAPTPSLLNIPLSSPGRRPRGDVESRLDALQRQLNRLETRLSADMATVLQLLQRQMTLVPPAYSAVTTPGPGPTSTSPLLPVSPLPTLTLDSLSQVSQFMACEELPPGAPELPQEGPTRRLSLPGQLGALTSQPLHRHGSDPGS

SMILES	hERG current change (%, negative = inhibition) at 1uM
Cc1ccc(CN2CCN(c3ncccn3)CC2)c(C)c1	5.69%
COc1ccc2oc(C(=O)OCC(=O)NCc3ccco3)c(C)c2c1	2.69%
CCOC(=O)C1CCN(C(=O)CSc2ccccc2Cl)CC1	6.31%
COc1ccc(CNS(=O)(=O)c2ccc(-n3cnnn3)c(C)c2)cc1	-2.4%
COc1ccc(S(=O)(=O)NCc2cccnc2)cc1	14.4%
COCCCn1c(SCC(=O)c2ccccc2)nc2ccccc2c1=O	17.7%
CC1CC(C)CN(S(=O)(=O)c2ccc3c(c2)oc(=O)n3CC(=O)NCc2cccnc2)C1 (centres unmarked)	2.17%
Fc1ccc(OCCOCCNCC2CCCO2)cc1 (centres unmarked)	10.1%
N#C/C(=C\c1ccc(C#N)cc1)C(=O)N1CCCC1	9.12%
CC(=O)c1cnc(Nc2cccc(Cl)c2Cl)s1	15.5%
CN(C(=O)Cn1cc([N+](=O)[O-])ccc1=O)C1CCCCC1	15.2%
COc1ccc(OC)c(NC(=O)Cc2ccc(NC3=NC4CS(=O)(=O)CC4S3)cc2)c1 (centres unmarked)	14.4%
CC1(C)Cc2c(c(N3CCCC3)nc3sc(C(=O)Nc4ccccc4)c(N)c23)CO1	21.2%
Cc1ccc(C(=O)N[C@H](C(=O)OCC(=O)c2ccc[nH]2)C(C)C)cc1	14.1%
CCOc1ccccc1NC(=O)CCS(=O)(=O)c1cccc2nsnc12	9.36%
O=C(NC12CC3CC(CC(C3)C1)C2)N1CCN(c2ccccc2)CC1	2.22%
Cc1cccc(N(C)S(=O)(=O)c2cc3c(cc2C)n(C)c(=O)c(=O)n3C)c1	-16%
CCOC(=O)N1CCN(C(=O)C2CCCCC2)CC1	1.54%
Cc1cccc(-n2c(Cc3cc(=O)[nH]c(=O)[nH]3)nnc2SCC(=O)N2CCCCC2)c1	0.257%
COc1nnc(-c2ccc(N3CCOCC3)c(NC(=O)C3CCCCC3)c2)c2ccccc12	4.38%
CCOC(=O)N1CCC2(CC1)CC(=O)c1cc(O)ccc1O2	-0.519%
CCc1ccc(OCCCC(=O)Nc2ccc(S(N)(=O)=O)cc2)cc1	12%

SMILES	hERG current change (%, negative = inhibition) at 1uM
COc1ccccc1NC(=O)c1cc(-c2cc(OC)c(OC)c(OC)c2)nc2ccccc12	8.92%
COc1ccc2c(c1O)C(=O)c1ccccc1C2=O	6.18%
Cc1nn(CC(C)C)c(Cl)c1C(=O)N(c1ccc(Cl)cc1F)S(C)(=O)=O	8.01%
Cc1cc(Cl)c(OCCCCNC(C)(C)C)c(Br)c1.O=C(O)C(=O)O	-9.56%
O=C(NNC1CC(=O)N(c2cccc(Cl)c2)C1=O)c1cccnc1 (centres unmarked)	-1.03%
N#Cc1cccc(OC(=O)c2ccc3c(=O)n4c(nc3c2)CCC4)c1	14.9%
COc1ccccc1-c1cc(C(F)(F)F)nc(S(=O)(=O)CCCC(=O)N2CCCCC2C)n1 (centres unmarked)	2.61%
CC(C)CNS(=O)(=O)c1ccc(CCC(=O)N2CCN(Cc3ccccc3)CC2)cc1	-20.7%
CC(C)(C)OC(=O)NCCCCCNC(=O)c1[nH]cnc1C(=O)Nc1nccs1	3.91%
CCOc1cc(/C=N/O)cc(Br)c1OC	11.8%
N=C1/C(=C\c2ccc(Br)o2)C(=O)N=C2SC(CC(=O)N3CCCCC3)=NN12	11.5%
O=C(NNC(=O)C12CC3CC(CC(C3)C1)C2)c1ccco1	17.1%
COc1ccc(OC)c(C(c2nnnn2Cc2ccccc2)N2CCN(C3CCCCC3)CC2)c1.Cl (centres unmarked)	-33.1%
O=C(O)c1cccc(Sc2cc(Cl)ccc2C(=O)O)c1	10.5%
COc1ccccc1-c1noc(-c2ccccc2C(=O)Nc2cccnc2)n1	5.23%
Fc1ccc2nc(C(F)(F)F)cc(N3CCOCC3)c2c1	13%
CC(=O)Nc1ccc(NC(=O)CCCn2cnc3ccccc3c2=O)cc1	8.6%
Cc1cc(C)c(N2C(=O)C3C4CC(=O)C(c5ccccc54)C3C2=O)c(C)c1 (centres unmarked)	3.35%
Cc1cnc(C)c(N2CCN(Cc3cn(C)nc3-c3cccc(Cl)c3)CC2)n1	-13.9%
CCCNC(=O)NS(=O)(=O)c1ccc(Cl)cc1	14.8%
CC(/C=N/NC(=O)Cn1cnc2c1c(=O)n(C)c(=O)n2C)=C\c1ccco1	-1.08%
O=[N+]([O-])c1ccc(Cl)c2cccnc12	7.69%
